About 1,200 (2.5%) of roughly 48,000 compounds were called active. Inconclusive results (about 2%) are left out.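 How the source made its calls: active means activation of at least 60% and not above a set upper limit (about 1 call in 100 departs from these limits); inconclusive means activation of 40% to 60%, or above that upper limit; inactive means activation under 40%.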 The list shows a part of the results.

Sequence of UniProt O75388 (O75388 whole entry, looked up, the tested form may be a part): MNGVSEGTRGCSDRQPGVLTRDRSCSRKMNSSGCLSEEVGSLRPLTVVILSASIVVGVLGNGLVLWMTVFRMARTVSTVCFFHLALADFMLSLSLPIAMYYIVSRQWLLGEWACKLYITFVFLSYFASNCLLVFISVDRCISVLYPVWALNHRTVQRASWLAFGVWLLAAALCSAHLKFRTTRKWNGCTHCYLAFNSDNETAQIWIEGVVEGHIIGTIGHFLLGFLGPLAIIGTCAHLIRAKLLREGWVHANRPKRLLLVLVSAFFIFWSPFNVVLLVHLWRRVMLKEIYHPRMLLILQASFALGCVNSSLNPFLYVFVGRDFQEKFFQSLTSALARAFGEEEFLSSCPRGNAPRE

This assay concerns the target Probable G-protein coupled receptor 32 (Homo sapiens) (UniProt O75388). Kind of assay: qHTS for Agonists of Human Resolvin D1 Receptor DRV1. Further: 0% is about no effect. The settings on record: CHO-K1 GPR32 beta-arrestin PathHunter luminescence, 90 min; at 76.9 µM; active compounds read high; zero percent set by DMSO-only wells. In short, it runs like this:
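Agonism was scored as beta-arrestin recruitment to ProLink-fused GPR32 in stably transfected CHO-K1 cells, giving a chemiluminescent beta-Gal signal; compounds were incubated 90 min at 37 °C.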
In general terms: Quantitative high-throughput screening tests each substance at several concentrations.
Take `CCn1nc(-c2ccccc2)c(-c2ccccc2)c(C(=O)OCCOC)c1=O`: the activation was inactive: -14.1%. Next, `CN1C(C(=O)Nc2ccc(F)cc2F)=CC(c2cccs2)=NS1(=O)=O`: inactive: 1.39%; `CC#CCOC(=O)c1c(C)nc2sc3c(c2c1N)CCC(O)C3` (configuration not stated): inactive: 3.33%; `Cc1ccc(Nc2c(-c3ccccc3O)nc3ccc(Br)cn23)cc1`: inactive: -7.38%. Next, `CC(C)N(C(=O)Cn1cc(S(=O)(=O)Cc2ccc(C(F)(F)F)cc2)c2ccccc21)C(C)C`: inactive: -15.7%. With `CCOc1ccc(S(=O)(=O)N2CCN(c3ccccc3)CC2)cc1C(N)=O`, the activation is inactive: -5.45%. Take `Cc1ccc(CN(C(=O)COc2ccc(C)c(C)c2)C2CCS(=O)(=O)C2)o1` (configuration not stated): the activation is inactive: -20.8%. Take `CN1CCc2cccc3c2C1Cc1ccc(O)c(O)c1-3` (configuration not stated): the activation is inactive: 15.1%.

In the case of `Cc1cccc(NC(=O)CSc2nc3c([nH]c4ccccc43)c(=O)n2C)c1`, the activation is inactive: -13.6%. With `COc1ccc2c(Sc3ccc(Cl)cc3)c(C(=O)NCCCN3CCCCC3)[nH]c2c1` the figure was inactive: -21.6%. Next, `CCOc1ccc(-n2c(=O)c3c(C)c(C(=O)N(C)C)sc3n(CC(=O)Nc3c(C)cc(C)cc3C)c2=O)cc1`: inactive: -14%; `CC(N)(C(=O)O)c1ccc(C(=O)O)cc1` (configuration not stated): inactive: -3%; `COc1ccc(OCc2nnc(-c3ccccc3)o2)cc1`: inactive: 23.2%. Regarding `COc1ccc(S(=O)(=O)Nc2cc(-c3cn4ccccc4n3)ccc2C)cc1`, the activation was inactive: 19.1%. With `Cc1cccc(-n2ncc(C(=O)N3CCC(C)CC3)c2C2CCN(C(=O)OC(C)(C)C)CC2)c1`, the activation was inactive: -13.3%. With `COc1cc(C2CC(=O)Nc3c2c(=O)n(C)c(=O)n3C)cc(OC)c1OC` (configuration not stated) the figure was inactive: -1.72%; with `CCOC(=O)c1cccc(NC(=O)CCCn2c(C)c3cnn(-c4ccccc4)c(=O)c3c2C)c1`, inactive: 4.24%. On to `COc1ccc(-c2cc(C(C)=O)c(C)n2CCC(=O)NCc2ccc(F)cc2)cc1`, for which the activation is inactive: -18.7%. With `Cc1ccc(NC(=O)c2cc3c(=O)[nH]c4ccccc4c3n2C)cc1F` the figure was inactive: 13.5%; with `Cc1ccc(CNC(=O)CCC(=O)N2CC(C)Sc3ccccc32)cc1` (configuration not stated), inactive: -17.5%; with `CCCCn1c(CNC(=O)c2ccc(OC)cc2)nnc1SCC(=O)Nc1ccccc1`, inactive: 9.77%. Regarding `CC[C@]12CCCN3CCc4c(n(c5ccccc45)C(=O)C1)[C@@H]32`, the activation is inactive: -26.8%. With `CCN(CC)c1cc2c(cc1F)c(=O)c(S(=O)(=O)c1ccccc1)cn2Cc1ccccc1` the figure was inactive: -20.9%; with `COc1ccc(CCNC(=O)NCc2noc3ccc(C)cc23)c(OC)c1`, inactive: -7.66%. Take `CC(=O)c1cccc(NS(=O)(=O)c2c(C)nc3sc(C)cn3c2=O)c1`: the activation is inactive: 4%. Next, `CCOC(=O)c1c(S(=O)(=O)NCC(=O)N2CCN(c3ccccc3OC)CC2)c(C)n(C)c1C`: inactive: 0.944%; `CCOC(=O)c1sc2ncn(CC(=O)Nc3ccc(C)cc3C)c(=O)c2c1C`: inactive: -4.38%; `Cc1cc(C)c(/C=C/c2onc(C)c2S(=O)(=O)N2CCC(C(=O)N3CCN(c4ccccc4)CC3)CC2)c(C)c1`: inactive: -9.57%. Next, `COC(=O)c1ccc(Cn2c(SCc3cccc(C)c3)nc3ccncc32)cc1`: inactive: -12%. With `COc1ccc(S(=O)(=O)N(CC(=O)N2CCC(C)CC2)c2ccc(C)cc2)cc1` the figure was inactive: 0.506%; with `CC1CCc2nc3ncn(CC(=O)Nc4cccc(C#N)c4)c(=O)c3cc2C1` (configuration not stated), inactive: -15.8%. For the compound `Cc1ccc(-c2ccc(=O)n(C(C)C(=O)Nc3ccccc3Cl)n2)cc1C` (configuration not stated), the activation is inactive: -3.62%. With `COc1cccc(NC(=O)c2cn(C3CCCCC3)c(=O)c3c2c2ccccc2n3C)c1`, the activation was inactive: -7.6%. Next, `CCCCNC(=O)C(CC)Sc1nnc(-c2ccc(OC)c(OC)c2)c(-c2ccc(OC)c(OC)c2)n1` (configuration not stated): inactive: -23%. With `CCc1ccccc1Nc1nn2c(=O)c3ccc(C(=O)Nc4cc(C)cc(C)c4)cc3nc2s1` the figure was inactive: -29.5%. With `Cc1cc(N2CCC(C)CC2)nc2ccc(NC(=O)CCC(=O)N3CCN(c4cccc(C(F)(F)F)c4)CC3)cc12` the figure was inactive: -7.85%; with `COc1cc(Cl)c(C)cc1NC(=O)CN1c2ccccc2S(=O)(=O)c2ccccc21`, inactive: 6.7%; with `O=S(=O)(Nc1ccc(-c2ccc(N3CCCC3)nn2)cc1)c1ccc(Br)cc1`, inactive: -4.75%. With `COc1ccc(C(=O)NCC(c2cccs2)S(=O)(=O)c2ccc(C)cc2)cc1` (configuration not stated), the activation was inactive: 9.71%. On to `Cc1ccc(-c2cc(C(F)(F)F)n3nc(C(=O)Nc4ccc(C#N)cc4)cc3n2)cc1`, for which the activation is inactive: -5.15%.

Regarding `CCOc1ccccc1CNC(=O)CCCN1C(=O)CCn2nc(-c3cccn3C)cc21`, the activation is inactive: 18%. Next, `CCc1ccc(-n2nc(C)c3c(C)cc(=O)n(CC(=O)Nc4ccc(OC)c(OC)c4)c32)cc1`: inactive: 14.3%. Next, `Cc1ccc(CNC(=O)C2CCN(S(=O)(=O)c3ccc4c(c3)oc(=O)n4C)CC2)cc1`: inactive: 14.7%. `CCOC(=O)c1c(C)[nH]c(C)c1S(=O)(=O)N1CCCC(C(=O)N2CCN(c3cc(C)ccc3C)CC2)C1` (configuration not stated): the activation is inactive: -11.9%.

For the compound `CCOc1ccc(CNC(=O)Cn2ncc3c(=O)oc4ccc(C)cc4c32)cc1`, the activation was inactive: -1.1%. With `Cc1ccc(C)c(CN2C(=O)c3ccccc3S(=O)(=O)c3ccc(C(=O)N4CCOCC4)cc32)c1`, the activation is inactive: -16%.

Regarding `CCC(CC)C(=O)Nc1ccccc1C(=O)OCc1cc(=O)n2nc(C3CCCCC3)sc2n1`, the activation is inactive: -20.4%.

Consider `COc1ccc(Cl)cc1N(C)C(=O)Cn1cnc2sc(C)c(S(=O)(=O)N3CCN(c4ncccn4)CC3)c2c1=O`, for which the activation is inactive: -17.6%. With `COc1ccc(C(=O)N2CCCCC2CCN2CCCCC2)cc1` (configuration not stated) the figure was inactive: -7.35%. `COc1ccc(Cl)cc1NC(=O)[C@H]1O[C@@H]2OC(C)(C)O[C@@H]2[C@H]2OC(C)(C)O[C@H]21`: the activation was inactive: -14.4%. Next, `O=S(=O)(c1cccs1)N1CCN(c2ccc(Cl)cc2)CC1`: inactive: -20.3%; `COc1cccc(C2C(C(=O)Nc3cccnc3)=C(C)Nc3nc(SCc4ccccc4)nn32)c1` (configuration not stated): inactive: -3.88%.

The values are drawn from PubChem BioAssay AID1346428 (National Center for Advancing Translational Sciences (NCATS), 2018).
